# Experimental data: PubChem BioAssay AID1347073 (National Center for Advancing Translational Sciences (NCATS), 2019)
# Hit rate of the full screen: of about 45,000 compounds, about 200 (0.44%) were called active. Not shown: some 7% with an inconclusive outcome. The call rests on the fitted dose curve; in most records, active means well fitted activation curve with a large enough effect; inconclusive means small, poorly fitted or top-dose-only effect; inactive means no such curve, though single readings can be large or run the other way. The list shows a part of the results.
# Assay: qHTS of TDP-43 Inhibitors: NCGC Sytravon Library Screen; further: 0% is about no effect; nearly all actives have a fitted effect of over 55% in size
# Details: yeast TDP-43 toxicity rescue, BacTiter-Glo growth, 24 h; series mostly up to 46.1 µM; growth rescue (activation): at the top concentration
# How it was run: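 TDP-43-expressing yeast, pregrown in raffinose, seeded at OD600 0.02 in galactose medium with compound for 24 hr at 30 deg C. Growth read by BacTiter-Glo luminescence, so rescue of toxicity appears as activation.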
row,Compound,growth rescue (activation)
1,CCC(=O)Nc1nc2ccc([N+](=O)[O-])cc2s1,inactive: 28%
2,Cc1n(-c2ccccc2)c2ccc(Cl)cc2[n+]1CCO,inactive: 3.83%
3,COC(=O)c1ccc(S(N)(=O)=O)o1,inactive: 0.968%
4,CCNC(=O)C1CCCN(C(=O)c2ccc(C)c(F)c2)CC1 (configuration not stated),inactive: 8.44%
5,O=C(CSc1nnc(-c2ccc(Cl)cc2)n1-c1ccc(Cl)cc1)N/N=C/c1ccco1,inactive: 8.66%
6,CCOC(=O)c1c(NC(=O)/C(C#N)=C/c2ccc(OC)cc2)sc2c1CCC2,inactive: 6.02%
7,COCCn1c(=O)[nH]c2cc(C(=O)Nc3cc(OC)c(OC)c(OC)c3)ccc2c1=O,inactive: 2.74%
8,CCOC(=O)CSc1nnc(-c2cccnc2)n1C,inactive: 1.95%
9,Cc1nnc(NCCc2ccccc2)c2ccccc12,inactive: 14.2%
10,CN1C(=O)c2ccc(NC(=O)c3cccc4ccccc34)cc2C1=O,inactive: 0.141%
11,CN(C=[N+](C)C)c1cccc2c1C(=O)c1ccccc1C2=O,inactive: 16.6%
12,Cc1cc2c(=O)n(C)c(SCC(=O)Nc3cccc(O)c3)nc2s1,inactive: -8.59%
13,O=C(CN1C(=O)C2CCCCC2C1=O)N1CCN(c2ccc(F)cc2)CC1 (configuration not stated),inactive: 4.45%
14,O=C(NNC(=O)c1cccnc1)c1ccncc1,inactive: 1.67%
15,CC(=O)c1c(C)oc2ccc(NS(=O)(=O)c3ccc(C)cc3)cc12,inactive: -3.78%
16,Cc1cc(/C=C2/C(=N)N3C(=NC2=O)SN=C3S(C)(=O)=O)c(C)n1-c1ccccc1F,inactive: 1.62%
17,CCCN1CCN(C(=O)Nc2cccc(C(F)(F)F)c2)CC1,inactive: -5.72%
18,Cc1ccc(/C=N/NC(=O)Nc2ccccc2)o1,inactive: 17.3%
19,CSc1nn(-c2ccc(C(=O)OC(C(=O)NC(N)=O)C(C)C)cc2)c(=S)s1 (configuration not stated),inactive: -8.26%
20,Cc1ccc(-c2csc(NC(=S)NC(=O)c3ccco3)n2)cc1,inactive: 18.8%
21,Nc1cc(N)nc(SCC(=O)N2CCc3ccccc32)n1,inactive: 16.1%
22,O=C(NC1CCCCCC1)C1CCN(C(=O)c2cccc(Cl)c2)CC1,inactive: 21.6%

row,Compound,growth rescue (activation)
1,CCc1ccc(NC(=O)Nc2ccncc2)cc1,inactive: 13.6%
2,CCOc1ccc(NC(=O)CN2C(=O)CSC2=O)cc1,inactive: -4.14%
3,Cc1ccc(CSCCC(=O)NCCc2ccc(Cl)cc2)cc1,inactive: 24.4%
4,O=C(NC1(C(F)(F)F)N=C(c2ccccc2)NC1=O)c1ccccc1F (configuration not stated),inactive: 3.43%
5,COc1cccc(C(Nc2ccccn2)c2c(NC(=O)c3ccco3)sc(C)c2C)c1 (configuration not stated),inactive: 15.2%
6,COc1ccc(CN2CC(C(=O)NCCCN3CCN(C)CC3)CC2=O)cc1 (configuration not stated),inactive: -22%
7,O=C(O)c1cccnc1Nc1ccc(Cl)cc1,inactive: -7.91%
8,Cc1c(Br)c(O)c(Br)c(O)c1/C=N/n1c(-c2ccccc2)n[nH]c1=S,inactive: 24.9%
9,O=C(CN1CCC(n2nnc3cc(C(F)(F)F)ccc32)CC1)Nc1ccc2c(c1)CCC2,inactive: -1.26%
10,O=C(COC(=O)c1ccc(NS(=O)(=O)c2ccc(Br)s2)cc1)NC1CCCC1,inactive: 2.71%
11,Cc1sc2ccccc2[n+]1CC(=O)O,inactive: 23.2%
12,CC(=O)Nc1ccc2c(COC(=O)[C@@H](NS(=O)(=O)c3ccc(C)cc3)C(C)C)cc(=O)oc2c1,inactive: -7.77%
13,CCS(=O)(=O)N1CCCC(C(=O)NCCCOC)C1 (configuration not stated),inactive: 8.88%
14,Cc1c(NC(=S)NC(=O)CC(C)C)c(=O)n(-c2ccccc2)n1C,inactive: -7.64%
15,CCC1=NN(C(=O)c2ccc(Br)cc2)C(O)(c2ccc(C)cc2)C1 (configuration not stated),inactive: 8.48%
16,Cc1ccc(N2CC(C(=O)OCC(=O)c3ccc(F)cc3)CC2=O)cc1 (configuration not stated),inactive: 5.91%
17,Cc1ccc(C(=O)NC(C)C2CC3CCC2C3)c(C)c1 (configuration not stated),inactive: 13.8%
18,Cc1csc(NC(=O)Cc2ccccc2[N+](=O)[O-])n1,inactive: 3.16%
19,CC(=O)c1cccc(NC(=O)CCS(=O)(=O)c2ccc3c(c2)n(C)c(=O)c(=O)n3C)c1,inactive: 12.2%
20,O=C(CSc1nc2ccc(Cl)cc2[nH]1)c1c[nH]c2ccccc12,inactive: 4.11%
21,COc1ccc(CNC(=O)CN(Cc2ccc(OC)cc2)C(=O)CCC(=O)Nc2ccccn2)cc1,inactive: -4.04%
22,CCCOC(=O)C1[C@H]2C(=O)N(C(C)c3ccc(OC)cc3)C[C@]23C=C[C@H]1O3 (some centres not stated),inactive: 2.07%

row,Compound,growth rescue (activation)
1,COc1cccc(C2C(C(=O)c3cccs3)=C(O)C(=O)N2CCN2CCOCC2)c1OC (configuration not stated),inactive: 9.76%
2,CCOc1ccc(Br)cc1S(=O)(=O)NC(=O)c1ccccc1,inactive: -3.13%
3,O=Cc1ccc(C(=O)OCC(=O)NCc2ccco2)cc1,inactive: 15.1%
4,COc1ccc(C(=O)/C(=C\c2ccco2)N2C=CC=CC2=C(C#N)C#N)cc1,inactive: 25.6%
5,COCCN1Cc2cccc(C(=O)NCC3CCN(CC(C)C)C3)c2C1=O (configuration not stated),inactive: 2.77%
6,CCOC(=O)N1CCN(C(=S)NC(=O)C23CC4CC(CC(C4)C2)C3)CC1,inactive: 12.4%
7,CC(C)c1cc(C(=O)NCc2ccc(F)cc2)no1,inactive: 16.3%
8,O=C(N/N=C1\SCC(=O)N1CCc1ccccc1)c1cccs1,inactive: -12.7%
9,COc1ccc(OCC(=O)N2c3ccccc3CCc3ccccc32)cc1,inactive: 6.51%
10,Cc1ccc(S(=O)(=O)Cn2nnnc2C(C(C)C)N2CCC(O)CC2)cc1 (configuration not stated),inactive: 12.4%
11,O=C(COc1cccc(-n2cnnn2)c1)Nc1ccc([N+](=O)[O-])cc1,inactive: 9.72%
12,O=C(OCC(=O)N1CCOCC1)c1ccc(F)cc1Cl,inactive: 0.59%
13,CCOc1ccc(C(C(=O)NCCOC)N(CCOC)C(=O)CCC(=O)Nc2ccccn2)cc1 (configuration not stated),inactive: 5.78%
14,CN(Cc1ccc(Cl)cc1)C(=O)c1ccc2ccccc2n1,inactive: 28%
15,CCOc1ccc(NC(=O)C2CCC(CNc3c(N4CCC(C)CC4)c(=O)c3=O)CC2)cc1 (configuration not stated),inactive: 16.3%
16,N#CCCN(C(=O)COC(=O)c1ccc(CNS(=O)(=O)c2ccc(F)c(Cl)c2)cc1)c1ccc(F)cc1,inactive: 6.8%
17,COc1cc(/C=N/N(CCO)C2=NS(=O)(=O)c3ccccc32)cc(OC)c1OC,inactive: 6.81%
18,COc1ccc(S(=O)(=O)NCC2CCCO2)cc1NC(=O)c1ccccc1 (configuration not stated),inactive: 6.43%
19,CC(C)(C)SCCNC(=O)/C=C/c1ccc([N+](=O)[O-])cc1,inactive: 31%
20,Cc1ccc(S(=O)(=O)N2CCC(c3nc4c(nnn4Cc4ccccc4)c(=O)[nH]3)CC2)cc1,inactive: 15.5%
21,CC(=O)c1ccc2c(c1)C1C=CCC1C(c1ccc(S(=O)(=O)N3CCOCC3)cc1)N2 (configuration not stated),inactive: 8.27%
22,O=C(NNC(=O)c1ccc(Cl)nc1)c1ccc(Br)cc1,inactive: 4.62%

row,Compound,growth rescue (activation)
1,O=C(CN1CCCCCC1)N/N=C/c1cccc(Cl)c1Cl,inactive: 0.852%
2,COCCCNC(=O)CSc1nc2sc(C(=O)OC)c(C)c2c(=O)n1N,inactive: -5.41%
3,O=S(=O)(c1cccc2nsnc12)N1CCN(c2ccc(F)cc2)CC1,inactive: 28.7%
4,CCc1nc2ccc(C(=O)NCCc3c[nH]c4ccccc34)cn2c1N(C)CCCc1ccccc1,inactive: 3.08%
5,CCN(CC(=O)Nc1cc(Cl)cc(Cl)c1)CC(=O)NC1CCS(=O)(=O)C1 (configuration not stated),inactive: -14.7%
6,COc1cc(C2Nc3ccccc3NC3=C2C(=O)CC(C)(C)C3)cc(OC)c1OC (configuration not stated),inactive: 10.8%
7,Cc1ccc(CN2CCN(/N=C/c3ccc(Cl)c([N+](=O)[O-])c3)CC2)cc1,inactive: 1.51%
8,CCCCNC(=O)c1ccc2nc(CC)c(N(CC)CCOC)n2c1,inactive: -7.65%
9,CN(CC(=O)NCC1CCCO1)S(=O)(=O)c1ccc(Br)cc1 (configuration not stated),inactive: 1.46%
10,Cc1cc(NC(=O)CSCC(=O)N2CCN(c3ccccc3)CC2)no1,inactive: 6.69%
11,CCN(CC)S(=O)(=O)c1ccc(C(=O)NC(C)(C)C)cc1,inactive: -11%
12,CCOc1ccc(OCC(=O)Nc2ccc(S(N)(=O)=O)cc2)cc1,inactive: 9.46%
13,CCOc1ccccc1OCC(=O)NN=C1CCCC(=O)C1,inactive: -7.47%
14,CC(C)N(CC#CC(O)(c1ccccc1)c1ccccc1)CCO,inactive: 18.8%
15,Cc1ccc(C(=O)Nc2cc3ccccc3oc2=O)cc1,inactive: 0.265%
16,Cc1cccc(/C(N)=N/OC(=O)c2ccc(F)cc2)c1,inactive: -61.1%
17,CN1CCC(C)(C(=O)Nc2cccc3c2CCCC3)C1 (configuration not stated),inactive: -13.2%
18,CCCOc1ccc(/C(O)=C2\C(=O)C(=O)N(c3ccccn3)C2c2ccccc2F)cc1C (configuration not stated),inactive: -6.02%
19,COc1ccc2oc(=O)c(/C(N)=N/NC(=O)c3ccncc3)cc2c1,inactive: 7.88%
20,O=C(Nc1ccccc1C(=O)NCc1cccnc1)c1ccc(Cl)cc1Cl,inactive: -3.63%
21,CCCSc1ncc(Cl)c(C(=O)Nc2sc(C(C)=O)c(C)c2C(=O)OCC)n1,inactive: 24.3%
22,C=CCc1cccc(CNc2ccc(S(=O)(=O)Nc3nccnc3OC)cc2)c1O,inactive: -4.71%

row,Compound,growth rescue (activation)
1,O=C(OCCN=C1NS(=O)(=O)c2ccccc21)c1cccnc1,inactive: 26%
2,CN(C)S(=O)(=O)N(CC(=O)NCCSCc1ccc(Cl)cc1)c1ccccc1,inactive: 6.17%
3,CN(c1ccccc1C(=O)Nc1ccc(S(=O)(=O)N2CCOCC2)cc1)S(=O)(=O)c1ccccc1,inactive: 1.17%
4,Nc1nc2ccc(S(=O)(=O)c3ccc4nc(N)sc4c3)cc2s1,inactive: 4.07%
5,COc1ccc(/C=C(/CC(=O)Nc2ccccc2)c2nc3ccccc3s2)cc1,inactive: -19.5%
6,CCN(CC)C(=O)c1sc(NC(=O)c2cccnc2)c(C(=O)OC)c1C,inactive: 6.81%
7,CCCCN(CC)CCNC(=O)c1cc2cc3ccc(Cl)cc3nc2o1,inactive: -6.51%
8,Cc1nnc(Sc2cc(C(=O)NC3CC3)c3ccccc3n2)s1,inactive: -1.84%
9,CNc1c(NS(=O)(=O)c2ccc(F)c(Cl)c2)c(=O)oc2ccccc12,inactive: -4.79%
10,COc1ccc([N+](=O)[O-])cc1N(CC(=O)Nc1ccccc1C(=O)NC(C)C)S(C)(=O)=O,inactive: 8.95%
11,CC(=O)NCCc1ccc(S(=O)(=O)Nc2ccc(NC(=O)c3ccc(F)cc3)cc2)cc1,inactive: 7.15%
12,Cc1ccc(NC(=O)CN2C(=O)C(c3ccc(C)cc3)=NC23CCCCCC3)cc1,inactive: -3.22%
13,O=S(=O)(Nc1cccc(S(=O)(=O)N2CCCCCC2)c1)c1ccccc1,inactive: 2.39%
14,CC(C(=O)NC1CCCc2ccccc21)N1CCN(c2ccc(F)cc2)CC1 (configuration not stated),inactive: -19.9%
15,Cc1ccc(/C=C/C(=O)NC(=S)N2CCN(c3ccc(F)cc3)CC2)cc1,inactive: -10.3%
16,CN(C)C(=O)CSc1nnc(NC(=O)CCc2ccccc2)s1,inactive: 11.8%
17,CCOC(=O)c1sc(NC(=S)NC(=O)c2ccccc2Cl)c(C(=O)OCC)c1C,inactive: 27.8%
18,C(=N\N=C\c1ccccn1)/c1ccccn1,inactive: -4.7%
19,Cc1ccc(/C=N/NC(=O)CSc2nnc(-c3ccc(Cl)cc3)n2-c2ccc(Cl)cc2)o1,inactive: -2.27%
